# Some of the results follow.
# B1: Banana lectin (Musa acuminata) (protein)
# chain: MNGAIKVGAWGGNGGSAFDMGPAYRIISVKIFSGDVVDAVDVTFTYYGKTETRHFGGSGGTPHEIVLQEGEYLVGMKGEFGNYHGVVVVGKLGFSTNKKSYGPFGNTGGTPFSLPIAAGKISGFFGRGGDFIDAIGVYLEP
# Key:
# Test in all cases: glycan array binding signal (z-score within array); higher = stronger binding
# Conditions in all cases: glycan notation: IUPAC condensed, linker removed
# [1] = molecular target: Fuc(a1-2)Gal
# Summary of the method: (§1)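 Arrays were curated from the Consortium for Functional Glycomics database, 3228 in total, and kept only where the protein sequence was available. Binding is expressed as a within-array Z-score. This score was averaged across arrays of the same protein sequence at different concentrations or buffers and across linkers, and negative values can be read as non-binding.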
# [2] = molecular target: Fuc(a1-2)Gal(b1-3)GalNAc
# Summary of the method: as §1
# [3] = molecular target: Fuc(a1-2)Gal(b1-3)GalNAc(a1-3)[Fuc(a1-2)]Gal(b1-4)Glc
# Summary of the method: as §1
# [4] = molecular target: Fuc(a1-2)Gal(b1-3)GalNAc(a1-3)[Fuc(a1-2)]Gal(b1-4)GlcNAc
# Summary of the method: as §1
# [5] = molecular target: Fuc(a1-2)Gal(b1-3)GalNAc(b1-3)Gal
# Summary of the method: as §1
# [6] = molecular target: Fuc(a1-2)Gal(b1-3)GalNAc(b1-3)Gal(a1-4)Gal(b1-4)Glc
# Summary of the method: as §1
# [7] = molecular target: Fuc(a1-2)Gal(b1-3)GalNAc(b1-4)[Neu5Ac(a2-3)]Gal(b1-4)Glc
# Summary of the method: as §1
# [8] = molecular target: Fuc(a1-2)Gal(b1-3)GlcNAc
# Summary of the method: as §1
# [9] = molecular target: Fuc(a1-2)Gal(b1-3)GlcNAc(b1-2)Man(a1-3)[Fuc(a1-2)Gal(b1-3)GlcNAc(b1-2)Man(a1-6)]Man(b1-4)GlcNAc(b1-4)GlcNAc
# Summary of the method: as §1
# [10] = molecular target: Fuc(a1-2)Gal(b1-3)GlcNAc(b1-2)Man(a1-3)[Fuc(a1-2)Gal(b1-3)GlcNAc(b1-2)Man(a1-6)]Man(b1-4)GlcNAc(b1-4)[Fuc(a1-6)]GlcNAc
# Summary of the method: as §1
# [11] = molecular target: Fuc(a1-2)Gal(b1-3)GlcNAc(b1-3)Gal(b1-4)Glc
# Summary of the method: as §1
# [12] = molecular target: Fuc(a1-2)Gal(b1-3)GlcNAc(b1-3)GalNAc
# Summary of the method: as §1
# [13] = molecular target: Fuc(a1-2)Gal(b1-3)GlcNAc(b1-3)[Fuc(a1-2)Gal(b1-3)GlcNAc(b1-6)]GalNAc
# Summary of the method: as §1
# [14] = molecular target: Fuc(a1-2)Gal(b1-3)GlcNAc(b1-3)[Gal(b1-4)GlcNAc(b1-6)]Gal(b1-4)Glc
# Summary of the method: as §1
# [15] = molecular target: Fuc(a1-2)Gal(b1-3)GlcNAc(b1-3)[Neu5Ac(a2-6)Gal(b1-4)GlcNAc(b1-6)]Gal(b1-4)Glc
# Summary of the method: as §1
# [16] = molecular target: Fuc(a1-2)Gal(b1-3)GlcNAc6S
# Summary of the method: as §1
# [17] = molecular target: Fuc(a1-2)Gal(b1-3)[Fuc(a1-4)]GlcNAc
# Summary of the method: as §1
# [18] = molecular target: Fuc(a1-2)Gal(b1-3)[Fuc(a1-4)]GlcNAc(b1-2)Man(a1-3)[Fuc(a1-2)Gal(b1-3)[Fuc(a1-4)]GlcNAc(b1-2)Man(a1-3)]Man(b1-4)GlcNAc(b1-4)GlcNAc
# Summary of the method: as §1
# [19] = molecular target: Fuc(a1-2)Gal(b1-3)[Fuc(a1-4)]GlcNAc(b1-2)Man(a1-3)[Fuc(a1-2)Gal(b1-3)[Fuc(a1-4)]GlcNAc(b1-2)Man(a1-6)]Man(b1-4)GlcNAc(b1-4)[Fuc(a1-6)]GlcNAc(b1-4)[Fuc(a1-6)]GlcNAc
# Summary of the method: as §1
# [20] = molecular target: Fuc(a1-2)Gal(b1-3)[Fuc(a1-4)]GlcNAc(b1-3)[Fuc(a1-3)[Gal(b1-4)]GlcNAc(b1-6)]Gal(b1-4)Glc
# Summary of the method: as §1
# [21] = molecular target: Fuc(a1-2)Gal(b1-3)[Fuc(a1-4)]GlcNAc(b1-3)[Gal(b1-4)GlcNAc(b1-6)]Gal(b1-4)Glc
# Summary of the method: as §1
# [22] = molecular target: Fuc(a1-2)Gal(b1-4)Fuc(a1-3)]GlcNAc(b1-2)Man(a1-3)[Fuc(a1-2)Gal(b1-4)[Fuc(a1-3)]GlcNAc(b1-2)Man(a1-6)]Man(b1-4)GlcNAc(b1-4)GlcNAc
# Summary of the method: as §1
# [23] = molecular target: Fuc(a1-2)Gal(b1-4)Glc
# Summary of the method: as §1
# [24] = molecular target: Fuc(a1-2)Gal(b1-4)Glc6S
# Summary of the method: as §1
# [25] = molecular target: Fuc(a1-2)Gal(b1-4)GlcNAc
# Summary of the method: as §1
# [26] = molecular target: Fuc(a1-2)Gal(b1-4)GlcNAc(b1-2)Man
# Summary of the method: as §1
# [27] = molecular target: Fuc(a1-2)Gal(b1-4)GlcNAc(b1-2)Man(a1-3)[Fuc(a1-2)Gal(b1-4)GlcNAc(b1-2)Man(a1-6)]Man(b1-4)GlcNAc(b1-4)GlcNAc
# Summary of the method: as §1
# [28] = molecular target: Fuc(a1-2)Gal(b1-4)GlcNAc(b1-2)Man(a1-3)[Fuc(a1-2)Gal(b1-4)GlcNAc(b1-2)Man(a1-6)]Man(b1-4)GlcNAc(b1-4)[Fuc(a1-6)]GlcNAc
# Summary of the method: as §1
# [29] = molecular target: Fuc(a1-2)Gal(b1-4)GlcNAc(b1-2)[Fuc(a1-2)Gal(b1-4)GlcNAc(b1-4)]Man(a1-3)[Fuc(a1-2)Gal(b1-4)GlcNAc(b1-2)Man(a1-6)]Man(b1-4)GlcNAc(b1-4)GlcNAc
# Summary of the method: as §1
# [30] = molecular target: Fuc(a1-2)Gal(b1-4)GlcNAc(b1-3)Gal(b1-4)GlcNAc
# Summary of the method: as §1
# [31] = molecular target: Fuc(a1-2)Gal(b1-4)GlcNAc(b1-3)Gal(b1-4)GlcNAc(b1-2)Man(a1-3)[Fuc(a1-2)Gal(b1-4)GlcNAc(b1-3)Gal(b1-4)GlcNAc(b1-2)Man(a1-6)]Man(b1-4)GlcNAc(b1-4)GlcNAc
# Summary of the method: as §1
# [32] = molecular target: Fuc(a1-2)Gal(b1-4)GlcNAc(b1-3)Gal(b1-4)GlcNAc(b1-3)Gal(b1-4)GlcNAc
# Summary of the method: as §1
# [33] = molecular target: Fuc(a1-2)Gal(b1-4)GlcNAc(b1-3)GalNAc
# Summary of the method: as §1
# [34] = molecular target: Fuc(a1-2)Gal(b1-4)GlcNAc(b1-3)[Fuc(a1-2)Gal(b1-4)GlcNAc(b1-6)]GalNAc
# Summary of the method: as §1
# [35] = molecular target: Fuc(a1-2)Gal(b1-4)GlcNAc(b1-3)[Fuc(a1-3)[Gal(b1-4)]GlcNAc(b1-6)]Gal(b1-4)Glc
# Summary of the method: as §1
# [36] = molecular target: Fuc(a1-2)Gal(b1-4)GlcNAc(b1-6)GalNAc
# Summary of the method: as §1
# [37] = molecular target: Fuc(a1-2)Gal(b1-4)GlcNAc6S
# Summary of the method: as §1
# [38] = molecular target: Fuc(a1-2)Gal(b1-4)[Fuc(a1-3)]GlcNAc
# Summary of the method: as §1
# [39] = molecular target: Fuc(a1-2)Gal(b1-4)[Fuc(a1-3)]GlcNAc(b1-2)Man(a1-3)[Fuc(a1-2)Gal(b1-4)[Fuc(a1-3)]GlcNAc(b1-2)Man(a1-6)]Man(b1-4)GlcNAc(b1-4)[Fuc(a1-6)]GlcNAc
# Summary of the method: as §1
# [40] = molecular target: Fuc(a1-2)Gal(b1-4)[Fuc(a1-3)]GlcNAc(b1-2)[Fuc(a1-2)Gal(b1-4)[Fuc(a1-3)]GlcNAc(b1-4)]Man(a1-3)[Fuc(a1-2)Gal(b1-4)[Fuc(a1-3)]GlcNAc(b1-2)Man(a1-6)]Man(b1-4)GlcNAc(b1-4)GlcNAc
# Summary of the method: as §1
# [41] = molecular target: Fuc(a1-2)Gal(b1-4)[Fuc(a1-3)]GlcNAc(b1-3)Gal(b1-4)[Fuc(a1-3)]GlcNAc
# Summary of the method: as §1
# [42] = molecular target: Fuc(a1-2)Gal(b1-4)[Fuc(a1-3)]GlcNAc(b1-3)Gal(b1-4)[Fuc(a1-3)]GlcNAc(b1-3)Gal(b1-4)[Fuc(a1-3)]GlcNAc
# Summary of the method: as §1
# [43] = molecular target: Fuc(a1-2)Gal(b1-4)[Fuc(a1-3)]GlcNAc(b1-3)GalNAc
# Summary of the method: as §1
# [44] = molecular target: Fuc(a1-2)Gal(b1-4)[Fuc(a1-3)]GlcNAc(b1-3)[Neu5Ac(a2-6)Gal(b1-4)GlcNAc(b1-6)]Gal(b1-4)Glc
# Summary of the method: as §1
# [45] = molecular target: Fuc(a1-2)Gal3S(b1-4)GlcNAc
# Summary of the method: as §1
binder,measurement,setting,value
B1,glycan array binding signal (z-score),[1],-0.191
same,glycan array binding signal (z-score),[2],-0.192
same,glycan array binding signal (z-score),[3],-0.194
same,glycan array binding signal (z-score),[4],-0.192
same,glycan array binding signal (z-score),[5],-0.192
same,glycan array binding signal (z-score),[6],-0.195
same,glycan array binding signal (z-score),[7],-0.188
same,glycan array binding signal (z-score),[8],-0.193
same,glycan array binding signal (z-score),[9],0.083
same,glycan array binding signal (z-score),[10],-0.118
same,glycan array binding signal (z-score),[11],-0.189
same,glycan array binding signal (z-score),[12],-0.194
same,glycan array binding signal (z-score),[13],-0.174
same,glycan array binding signal (z-score),[14],-0.192
same,glycan array binding signal (z-score),[15],-0.194
same,glycan array binding signal (z-score),[16],-0.188
same,glycan array binding signal (z-score),[17],-0.195
same,glycan array binding signal (z-score),[18],-0.165
same,glycan array binding signal (z-score),[19],0.027
same,glycan array binding signal (z-score),[20],-0.195
same,glycan array binding signal (z-score),[21],-0.105
same,glycan array binding signal (z-score),[22],-0.17
same,glycan array binding signal (z-score),[23],-0.196
same,glycan array binding signal (z-score),[24],-0.192
same,glycan array binding signal (z-score),[25],-0.194
same,glycan array binding signal (z-score),[26],-0.193
same,glycan array binding signal (z-score),[27],0.121
same,glycan array binding signal (z-score),[28],0.154
same,glycan array binding signal (z-score),[29],0.032
same,glycan array binding signal (z-score),[30],-0.195
same,glycan array binding signal (z-score),[31],-0.11
same,glycan array binding signal (z-score),[32],-0.187
same,glycan array binding signal (z-score),[33],-0.194
same,glycan array binding signal (z-score),[34],-0.191
same,glycan array binding signal (z-score),[35],-0.19
same,glycan array binding signal (z-score),[36],-0.177
same,glycan array binding signal (z-score),[37],-0.196
same,glycan array binding signal (z-score),[38],-0.194
same,glycan array binding signal (z-score),[39],0.115
same,glycan array binding signal (z-score),[40],-0.151
same,glycan array binding signal (z-score),[41],-0.189
same,glycan array binding signal (z-score),[42],-0.165
same,glycan array binding signal (z-score),[43],-0.184
same,glycan array binding signal (z-score),[44],-0.187
same,glycan array binding signal (z-score),[45],-0.194

# From the supplement of paper PMC8728848
